Assay results from PubChem BioAssay AID904 (National Center for Advancing Translational Sciences (NCATS), 2007).
The campaign covered roughly 55,000 compounds. About 530 (0.96%) were called active. The inconclusive results got no clear call from the source; some entries with a clear call stand among them for comparison. The call rests on the fitted dose curve; in most records, active means well fitted cell-killing curve with a large enough effect; inconclusive means small, poorly fitted or top-dose-only effect; inactive means no such curve, though single readings can be large or run the other way. A potency beside an inconclusive call is a rough fit, not a confirmed value.

Test: qHTS Screen for Compounds that Selectively Target Cancer Cells with p53 Mutations: Cytotoxicity of p53 Null Cells at the Nonpermissive Temperature; further: nearly all actives have a fitted effect of over 50% in size
Conditions: H1299 p53-null (neo) cells, 39C, ATPlite viability, 24 h; series mostly up to 46.1 µM
How it was run: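 Cells seeded at 600/well, 37C overnight. Compound added (up to 46 uM), plates shifted to 39C for 24 hr. ATPlite added, luminescence read after 20 min at room temperature.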
Potency means the concentration at half of the fitted maximal effect; tags describe the fitted curve by direction and shape.

SMILES | Potency
COc1cccc(Nc2cc(-c3ccccc3)nc(C)n2)c1 | inconclusive: 0.0398 µM [cytotoxic, full curve, poor fit]
Cc1csc2nc(-c3cccc(NC(=O)c4ccccc4F)c3)cn12 | active: 11.2 µM
Cc1nn2c(=O)cc(COC(=O)c3ccc(NC(=O)c4ccc(C(C)(C)C)cc4)cc3)nc2s1 | inactive
O=C(CSc1n[nH]c(-c2ccccc2)n1)NCCc1ccccc1 | inconclusive: 0.158 µM [cytotoxic, full curve, poor fit]
COc1cc(-c2nc3cnccn3c2Nc2ccc(C(C)C)cc2)ccc1O | active: 15.8 µM
COc1cccc(CNC(=O)c2cccc(NC(=O)c3nsc4ccccc34)c2)c1 | inactive
Cc1cccc(C(=O)Nc2sc3c(c2C(=O)O)CCCC3)c1 | inconclusive: 3.98 µM [cytotoxic, partial curve]
CC(C)(C)c1ccc(S(=O)(=O)N2CCC(c3ccncc3)CC2)cc1 | inconclusive: 20 µM [cytotoxic, partial curve]
CCN1CCN(C(=O)Cn2ncc3c4ccccc4n(Cc4ccccc4F)c3c2=O)CC1 | inconclusive: 25.1 µM [cytotoxic, single point]
Cc1nn2c(=O)cc(COC(=O)c3ccccc3NC(=O)C(C)C)nc2s1 | inconclusive: 0.0501 µM [cytotoxic, full curve, poor fit]
CC(C)(C)c1ccc(S(=O)(=O)c2cnc(SCC(=O)Nc3ccc(F)c(Cl)c3)[nH]c2=O)cc1 | inconclusive: 31.6 µM [cytotoxic, single point]
COc1ccc(CN(C(=O)CSc2nnc(-c3c[nH]c4ccccc34)o2)c2ccc(F)cc2)cc1OC | inconclusive: 31.6 µM [cytotoxic, single point]
COc1ccc(-c2cc(C(F)(F)F)nc(NCc3ccccc3)n2)cc1 | inactive
CNC(=O)c1cc2c(s1)CCCCCC2 | inactive
COc1ccc(NC(=O)c2sc3nc4c(cc3c2N)CCCCCC4)cc1Cl | inconclusive: 6.31 µM [cytotoxic, full curve, poor fit]
Cc1ccc(NC(=O)Nc2ccc3nc(N4CCN(C)CC4)cc(C)c3c2)cc1C | inconclusive: 25.1 µM [cytotoxic, single point]
COc1cc(OC)cc(C(=O)Nc2nc(-c3nnn(-c4ccc(F)c(Cl)c4)c3C)ns2)c1 | inconclusive: 22.4 µM [cytotoxic, single point]
O=C(Nc1ccc2oc(-c3cc(Br)ccc3Cl)nc2c1)c1ccc2ccccc2c1 | inconclusive: 31.6 µM [cytotoxic, single point]
COc1ccc(CC(=O)NCCc2csc(-c3cccc(F)c3)n2)cc1OC | inconclusive: 0.199 µM [cytotoxic, full curve, poor fit]
CCOC(=O)c1cccc(NC(=O)NCc2ccc3c(c2)CCN3C(=O)CC)c1 | inconclusive: 35.5 µM [cytotoxic, single point]
COc1cc(NS(=O)(=O)c2cccs2)cc(OC)c1 | inconclusive: 0.631 µM [cytotoxic, full curve, poor fit]
COc1ccc(C2=C(N3CCN(c4cc(Cl)ccc4C)CC3)c3ccccc3C2=O)cc1 | inconclusive: 15.8 µM [cytotoxic, single point]

SMILES | Potency
COc1cc2nc(SCc3ccc(F)cc3)n3nc(CCn4c(C)nc5ccccc54)nc3c2cc1OC | inconclusive: 3.16 µM [cytotoxic, single point]
Cc1nn(C)c2c1c(-c1ccccc1)cc(=O)n2CC(=O)NC(C)(C)C | inactive
Cc1ccc2nc(/C(C#N)=C/c3ccc(-c4ccc(F)cc4F)o3)[nH]c2c1 | active: 7.94 µM
CN(C)c1ccc(/C=C(\C#N)c2nc3ccccc3c(=O)[nH]2)cc1 | inconclusive: 0.251 µM [cytotoxic, full curve]
CCOc1ccccc1Nc1sc(C(=O)c2ccc(Cl)cc2)c(N)c1C#N | inactive
Cc1c(CCC(=O)NCCc2ccccc2F)c(=O)oc2cc(O)ccc12 | inconclusive: 0.0794 µM [cytotoxic, full curve, poor fit]
CC(C)(C)c1ccc(OCC(=O)N(Cc2ccco2)Cc2ccccc2F)cc1 | inconclusive: 10 µM [cytotoxic, partial curve]
COc1ccc(OC)c(C2C(C(N)=O)=C(C)Nc3nc(-c4cccc(Cl)c4)nn32)c1 (centres undefined) | inconclusive: 3.16 µM [cytotoxic, full curve]
CCOc1nc(NC(=O)NS(=O)(=O)Oc2ccc(Cl)cc2)nc(-c2ccccc2)n1 | inconclusive: 31.6 µM [cytotoxic, single point]
CCOc1ccc(C(C)C)cc1S(=O)(=O)Nc1cccc(-c2ccc(N3CCOCC3)nn2)c1 | inactive
O=C(Cn1ncc2c3ccccc3n(Cc3ccc(Cl)cc3)c2c1=O)NCCCc1ccccc1 | inconclusive: 0.0794 µM [cytotoxic, full curve, poor fit]
O=C(c1ccc(CSc2nc3ccncc3n2Cc2ccccc2F)cc1)N1CCCCCC1 | inconclusive: 15.8 µM [cytotoxic, single point]
CCOc1ccc2nc(N3CCCC(C(=O)NCc4ccc(OC)cc4)C3)sc2c1 (centres undefined) | inconclusive: 15.8 µM [cytotoxic, partial curve]
CCCC(=O)Nc1cccc(-c2nc3cc(C)c(C)cc3o2)c1C | inconclusive: 5.01 µM [cytotoxic, partial curve]
CC(=O)Nc1cccc(-c2nnc(SCC(=O)c3cc([N+](=O)[O-])ccc3Br)o2)c1 | inconclusive: 15.8 µM [cytotoxic, partial curve]
O=C(COc1ccc(F)cc1)Nc1cccc(OCc2cc(=O)n3ccccc3n2)c1 | inconclusive: 0.316 µM [cytotoxic, single point]
COc1ccccc1C(=O)Oc1c(Sc2ccccc2)c(C)nn1-c1ccccc1 | inconclusive: 17.8 µM [cytotoxic, single point]
COc1cc(OC)cc(C(=O)Nc2ccc3nc4n(c(=O)c3c2)CCCCC4)c1 | inconclusive: 11.2 µM [cytotoxic, partial curve, poor fit]
COc1ccc(NS(=O)(=O)c2ccc3[nH]c(=O)ccc3c2)cc1OC | inconclusive: 35.5 µM [cytotoxic, single point]
Cc1cc(NC(=O)c2cc(Cl)ccc2Cl)ccc1-c1cc2ccccc2oc1=O | inactive
Cc1ccc(C)c(N2CCN(CCCNC(=O)c3cnn(-c4ccccc4)c3C3CCN(C(=O)OC(C)(C)C)CC3)CC2)c1 | inconclusive: 20 µM [cytotoxic, single point]
Cc1cccc(CCn2c(=O)c3ccccc3n(CC(=O)Nc3ccccc3F)c2=O)c1 | inactive

SMILES | Potency
Cc1cc(C)cc(Nc2cc(C(=O)NCCCN(C)C3CCCCC3)c3ccccc3n2)c1 | active: 12.6 µM
COc1ccc(NS(=O)(=O)c2ccc(-c3cnc(C4CC4)o3)cc2)cc1Cl | inconclusive: 3.16 µM [cytotoxic, partial curve, poor fit]
CCCOc1cccc(C2c3c(-c4ccccc4O)n[nH]c3C(=O)N2Cc2ccco2)c1 (centres undefined) | active: 17.8 µM
CCS(=O)(=O)N1CCc2cc(C(=O)Nc3cccc(C(C)=O)c3)ccc21 | inconclusive: 6.31 µM [cytotoxic, single point]
Cc1ccc(Cc2cn3cc(-c4ccccc4)nc3s2)cc1 | inconclusive: 3.16 µM [cytotoxic, full curve]
CN(C)S(=O)(=O)c1ccc2c(c1)nnn2CCNC(=O)Nc1ccc(Cl)cc1 | inconclusive: 0.0126 µM [cytotoxic, full curve, poor fit]
CCc1nnc(SCC(=O)N(CC)c2ccccc2)c2cc3oc(C)cc3n12 | inconclusive: 2 µM [cytotoxic, partial curve, poor fit]
Cc1cccc(CSc2nc(-c3cccc(C)c3)nc3c2Cc2c(CO)cnc(C)c2O3)c1 | inconclusive: 12.6 µM [cytotoxic, single point]
CC1CCN(C(=O)Cn2cc(SCC(=O)Nc3ccccc3)c3ccccc32)CC1 | inconclusive: 0.0794 µM [cytotoxic, full curve, poor fit]
O=C(COc1ccc(Cl)cc1Cl)Nc1c(-c2cccs2)nc2ccccn12 | inconclusive: 31.6 µM [cytotoxic, single point]
CCOc1ccccc1Nc1nc2ccccc2nc1NS(=O)(=O)c1ccc(Cl)cc1 | inactive
CCOc1ccc(CNC(=O)CCCn2c(=O)c3cccn3c3ccccc32)cc1 | inconclusive: 12.6 µM [cytotoxic, partial curve]
CCOc1ccc(C(=O)N(Cc2nc(-c3cccc(C)c3)no2)C(C)C)cc1 | inconclusive: 31.6 µM [cytotoxic, single point]
CCN(CC)CCNC(=O)c1ccc(-c2nc(CN3CCc4ccccc43)c(C)o2)cc1 | inactive
Cc1ccc(CN2c3ccccc3-c3nc(SCC(=O)NCCc4ccccc4)ncc3S2(=O)=O)cc1 | inactive
Cc1ccc(Nc2nc(CSc3nnc(-c4ccccc4C)n3C)cs2)cc1 | inconclusive: 15.8 µM [cytotoxic, single point]
Cc1ccc(NCc2cc3cc4c(cc3n(CC(=O)Nc3ccc(F)cc3F)c2=O)OCCO4)cc1 | inactive
Cc1ccc(NC(=O)Cn2c(=O)n(-c3ccccc3)c(=O)c3ccc(C(=O)NCc4ccc5c(c4)OCO5)cc32)cc1 | inconclusive: 10 µM [cytotoxic, partial curve]
O=C(Nc1ccccc1C(F)(F)F)c1noc2c1CCCC2 | inactive
CCN(Cc1ccccc1)C(=O)C1CCC(CNS(=O)(=O)c2ccc3c(c2)CCCC(=O)N3)CC1 (centres undefined) | inconclusive: 6.31 µM [cytotoxic, full curve, poor fit]
